Hit rate of the full screen: of about 340,000 compounds, about 6,900 (2%) were called active. No stated cut-off is given here; in the data, active means inhibition above about 30%; inactive means below that, where a call was filed. Only a part is listed here, and it is no random draw. Where no call is shown, the source filed none.
These molecules were tested against D(2) dopamine receptor (Homo sapiens) (UniProt P14416) (assay: HTS Assay for Allosteric Antagonists of the Human D2 Dopamine Receptor: Primary Screen for Antagonists). Conditions: HEK293 TREx D2 cells, calcium flux, dopamine EC80; at 10 µM; stronger effect = higher value.
Chain of UniProt P14416 (P14416 whole entry, looked up): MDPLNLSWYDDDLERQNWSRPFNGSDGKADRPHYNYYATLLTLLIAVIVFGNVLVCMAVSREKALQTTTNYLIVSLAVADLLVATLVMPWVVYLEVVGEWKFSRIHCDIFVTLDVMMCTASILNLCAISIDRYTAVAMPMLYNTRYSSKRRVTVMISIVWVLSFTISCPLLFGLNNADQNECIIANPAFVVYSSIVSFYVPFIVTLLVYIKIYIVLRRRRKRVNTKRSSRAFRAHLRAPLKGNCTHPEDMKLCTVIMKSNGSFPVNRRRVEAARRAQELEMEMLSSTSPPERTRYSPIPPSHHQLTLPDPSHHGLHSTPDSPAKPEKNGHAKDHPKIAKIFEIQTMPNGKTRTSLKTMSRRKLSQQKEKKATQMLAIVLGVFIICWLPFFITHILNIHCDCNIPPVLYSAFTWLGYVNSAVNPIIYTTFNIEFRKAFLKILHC
How it was run: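 Tetracycline-induced HEK293 TREx cells expressing D2 receptor forced-coupled to calcium signalling, loaded with no-wash calcium dye. Compounds added and calcium flux read 180 s, then dopamine added at EC80 and read a further 180 s.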
`O=C(Nc1ccc(Cl)cc1)c1cc2nc(-c3ccc4c(c3)OCO4)cc(C(F)(F)F)n2n1` was tested, and the inhibition was 7.64%. `CCn1c(=O)n(-c2cccc(Cl)c2)c(=O)c2sc3ccccc3c21` showed an inhibition of 0.984%. Work on `CCc1nn(CC(=O)N2CCN(c3ccc(Cl)cc3)CC2)c(=O)c2cc3occc3n12` yielded an inhibition of 4.14%. `O=C(c1cnc(N2CCCCC2)c2ccccc12)N1CCN(c2ccc(Cl)cc2)CC1` gave an inhibition of 18.7%. `COc1ccc(C(=O)Nc2ccccc2-c2nc(-c3ccc(OC)cc3)no2)cc1` gave an inhibition of 10.6%. `COc1ccc(OC)c(/C=C(\C#N)c2nc3ccccc3c(=O)[nH]2)c1` was tested, and the inhibition was -2.09%. With `O=C(CCC(=O)c1ccccc1)Nc1ccc(F)c(Cl)c1` the inhibition was 0.201%. Molecule `Cc1ccc(C)c(S(=O)(=O)NCCc2csc(-c3ccc(Cl)cc3)n2)c1` has an inhibition of -26.7%. Work on `Cc1sc2c(c1C)c(=O)n(CCc1ccccc1)c(=O)n2Cc1ccc(F)cc1` yielded an inhibition of 17.4%. In the case of `O=S(=O)(NCCS(=O)(=O)N1CCN(c2ccccc2)CC1)c1ccc(Cl)cc1`, the inhibition is reported as 5.3%. Work on `Cc1cccc(NC(=O)C2CCCN(S(=O)(=O)c3ccc4c(c3)oc(=O)n4C)C2)c1` (stereo not drawn) yielded an inhibition of -24.9%. Molecule `COc1ccccc1N1CCN(CCCNC(=O)c2cnn(-c3ccc(C)c(C)c3)c2C2CCN(C(=O)OC(C)(C)C)CC2)CC1` has an inhibition of 10.8%. `CCCCS(=O)(=O)c1oc(-c2ccc(F)cc2)nc1S(=O)(=O)c1ccccc1` showed an inhibition of 0.279%. Work on `Fc1ccc(-c2cc(C(F)(F)F)nc(NCc3ccccc3)n2)cc1` yielded an inhibition of -0.784%. With `O=C(c1ccc2c(c1)N(Cc1ccc(F)cc1)C(=O)c1ccccc1S2(=O)=O)N1CCN(c2ccccn2)CC1` the inhibition was -9.67%. In the case of `COc1ccccc1CNC(=O)c1cnc2c(-c3ccccc3)c(C)nn2c1C`, the inhibition is reported as -8.28%. Work on `Cc1ccc(-n2nc3ccc(NC(=O)Cc4ccc(Cl)cc4)cc3n2)cc1` yielded an inhibition of 1.43%. In the case of `Cc1ccc(CNC(=O)c2ccc(N3CCC4(CC3)CC(c3ccccc3)=NO4)c([N+](=O)[O-])c2)cc1`, the inhibition is reported as active: 45.2%. For `CCOC(=O)c1c(NC(=O)C(C)Sc2cn(CCNC(=O)c3ccccc3OC)c3ccccc23)sc2c1CCC2` (stereo not drawn), the inhibition was 4.31%. `CCOC(=O)COc1ccc(CC)cc1C(=O)c1ccn2nc(-c3ccc(Cl)cc3)cc2n1` showed an inhibition of -12.4%. Work on `COc1cccc(CNC(=O)CSC2=Nc3ccccc3C3=NC(C)C(=O)N23)c1OC` (stereo not drawn) yielded an inhibition of 8.28%. Molecule `COc1ccc(-c2noc(N3CCN(c4ccc(C)cc4)C(C)C3)n2)cc1OC` (stereo not drawn) has an inhibition of -2.13%. `CCOc1ccc(NC(=O)Cn2c(=O)n(CCCC(=O)NCc3ccc4c(c3)OCO4)c(=O)c3ccccc32)cc1` was tested, and the inhibition was -1.64%. `Cc1ccc(CSc2ncc(Cl)c(C(=O)Oc3ccc(F)cc3)n2)cc1` gave an inhibition of 6.06%. With `O=C(NCCc1ccc(Cl)cc1)c1ccc2c(c1)N(Cc1c(F)cccc1Cl)C(=O)CS2` the inhibition was -3.97%. `COC(=O)c1c(C)oc2ccc(N(C(=O)Oc3ccccc3)S(=O)(=O)c3ccc(C(C)(C)C)cc3)cc12` was tested, and the inhibition was 6.47%. In the case of `Cc1c(C)n(C)c2ccc(C(=O)NCCc3ccc(Cl)cc3)cc12`, the inhibition is reported as 20.3%. `Cc1ccc(NC(=O)C2CCCN(S(=O)(=O)c3c(C)n[nH]c3C)C2)cc1Cl` (stereo not drawn) was tested, and the inhibition was -13.3%. `CC1=C(C(=O)Nc2cc(Cl)ccc2C)C(c2ccco2)n2ncnc2N1` (stereo not drawn) showed an inhibition of 14.2%. `O=C(CSc1nc2c([nH]c3ccccc32)c(=O)n1-c1ccc(F)cc1)NCc1ccco1` showed an inhibition of 13.5%. In the case of `Cc1nc2ccccc2c(=O)n1CCCO`, the inhibition is reported as active: 31.9%. For `CCSc1nnc2c(n1)OC(c1sccc1C)N(C(C)=O)c1ccccc1-2` (stereo not drawn), the inhibition was 9.95%. In the case of `O=C(c1ccc2c3c(cccc13)CC2)C1CCCN(Cc2ccccn2)C1` (stereo not drawn), the inhibition is reported as active: 36.7%. `CCOC(=O)C1CCCN(S(=O)(=O)c2cc3c(cc2C)NC(=O)CO3)C1` (stereo not drawn) gave an inhibition of -22.6%. Work on `O=C(NCc1cccc(F)c1)c1ccc2nc(N3CCCCC3)sc2c1` yielded an inhibition of 0.409%. Molecule `COc1ccc(Cn2c(=O)c3oc4ccccc4c3n(Cc3cccc(F)c3)c2=O)cc1` has an inhibition of 2.69%. `Cc1ccc(OCC(=O)Nc2ccc3nc(SCC(N)=O)sc3c2)cc1` gave an inhibition of -3.76%. With `Cc1ccc2c(c1)C1CN(C)CCC1N2S(=O)(=O)c1ccc(C#N)cc1` (stereo not drawn) the inhibition was active: 39.5%. `O=C(CN1C(=O)CCc2cc(S(=O)(=O)N3CCOCC3)ccc21)NCc1ccccc1Cl` was tested, and the inhibition was -11.6%. `Cc1ccc(N2CC(C(=O)N3CCC(C(=O)Nc4cccc(Br)c4)CC3)CC2=O)cc1` (stereo not drawn) was tested, and the inhibition was active: 38.7%. Molecule `CCSc1ncc(Cl)c(C(=O)N(Cc2ccccc2)Cc2ccco2)n1` has an inhibition of 13.2%. In the case of `CCCOc1ccc(NC(=O)CC2C(=O)N(c3ccc(C)cc3)C(=O)N2C2CCCC2)cc1` (stereo not drawn), the inhibition is reported as 1.24%. `Cc1nn(-c2ccc(F)cc2)c(-n2cccc2)c1C(=O)N1CCN(c2ccccc2F)CC1` showed an inhibition of 4.85%. For `CC(=O)Nc1ccc(NS(=O)(=O)c2ccc(Cl)s2)cc1`, the inhibition was 4.68%. Molecule `Cc1c(C(=O)Nc2ccc(F)c(F)c2)oc2ccc(S(=O)(=O)N3CCC4(CC3)OCCO4)cc12` has an inhibition of -24.8%. In the case of `O=C(Nc1c(-c2ccc(F)cc2)nc2ccccn12)c1cccc(F)c1`, the inhibition is reported as -15.2%. `Cc1ccc(C2C=C(c3ccc(F)cc3)Nc3nc(CCCO)nn32)cc1` (stereo not drawn) was tested, and the inhibition was -8.03%. With `CCCCc1ccc(NS(=O)(=O)c2ccc(N3CCCCS3(=O)=O)cc2)cc1` the inhibition was -0.48%.

Reference: PubChem BioAssay AID485344 (National Center for Advancing Translational Sciences (NCATS), 2010)
Further: 0% is about no effect.
